Experimental findings from publication PMC12820563, “FoxP3 forms a head-to-head dimer in vivo and stabilizes its multimerization on adjacent microsatellites” are described below.

The other results are listed elsewhere or left out.

The target in the assay is T1, MBP-FoxP1dN (Mus musculus, UniProt P58462 326-579).
T1 sequence: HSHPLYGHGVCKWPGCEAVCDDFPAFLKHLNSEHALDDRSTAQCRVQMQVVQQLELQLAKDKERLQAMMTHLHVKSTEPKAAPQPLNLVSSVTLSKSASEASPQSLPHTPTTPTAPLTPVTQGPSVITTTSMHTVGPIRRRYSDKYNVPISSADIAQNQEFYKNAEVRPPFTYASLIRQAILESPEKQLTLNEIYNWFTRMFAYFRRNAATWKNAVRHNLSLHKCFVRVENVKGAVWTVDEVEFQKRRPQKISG
Briefly: PD-seq (MBP pull-down with sequencing); 20 mM Tris-HCl pH 7.5, 100 mM NaCl, 1.5 mM MgCl2, 0.4 uM protein, 0.1 uM dsDNA library, 30 min, room temperature, amylose pull-down; high values mean tight binding. As to conditions: protein: recombinant; tags: His6-MBP; chain copies: 2; dsDNA, one strand shown. The procedure, abridged: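 Mouse FoxP3 or FoxP1 fragment lacking the N-terminus, His6-MBP-tagged and expressed in E. coli, was incubated at 0.4 µM with 0.1 µM Klenow-filled degenerate double-stranded DNA library for 30 min at room temperature in Tris pH 7.5 buffer with NaCl and MgCl2. Complexes captured on amylose resin were washed three times and their DNA sequenced on Illumina. Binding is reads-per-million enrichment of pull-down over input, replicates pooled.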
Regarding “GATGATTGTTCTCCCAGCTGATGAATTGCGAATGTCGAGTAAACAAATTTTCCTAATCTTTCTGTTCAAGCGCCATCTAC”, the binding signal is 1.12 RPM ratio (pull-down/input).

As to “GATGATTGTTCTCCCAGCTGATGAATTGATCGATTCGAGTAAACAAATTTTCCTAATCTTTCTGTTCAAGCGCCATCTAC”, the binding signal is 1.03 RPM ratio (pull-down/input).

In the case of “GATGATTGTTCTCCCAGCTGATGAATTGTTATGTTCGAGTAAACAAATTTTCCTAATCTTTCTGTTCAAGCGCCATCTAC”, the binding signal is 2.01 RPM ratio (pull-down/input).

Turning to “GATGATTGTTCTCCCAGCTGATGAATTGTTCACGTCGAGTAAACAAATTTTCCTAATCTTTCTGTTCAAGCGCCATCTAC”, the binding signal is 1.04 RPM ratio (pull-down/input).

With “GATGATTGTTCTCCCAGCTGATGAATTTGTAAGGTCGAGTAAACAAATTTTCCTAATCTTTCTGTTCAAGCGCCATCTAC”, the binding signal was 0.984 RPM ratio (pull-down/input).

As for “GATGATTGTTCTCCCAGCTGATGAATTCAGCGTCTCGAGTAAACAAATTTTCCTAATCTTTCTGTTCAAGCGCCATCTAC”, the binding signal is 0.903 RPM ratio (pull-down/input).

Take “GATGATTGTTCTCCCAGCTGATGAATTGGGCTTGTCGAGTAAACAAATTTTCCTAATCTTTCTGTTCAAGCGCCATCTAC”: the binding signal is 0.904 RPM ratio (pull-down/input).

Regarding “GATGATTGTTCTCCCAGCTGATGAATTGCGTGGCTCGAGTAAACAAATTTTCCTAATCTTTCTGTTCAAGCGCCATCTAC”, the binding signal was 0.979 RPM ratio (pull-down/input).

Turning to “GATGATTGTTCTCCCAGCTGATGAATTAGGGCAGTCGAGTAAACAAATTTTCCTAATCTTTCTGTTCAAGCGCCATCTAC”, the binding signal was 0.877 RPM ratio (pull-down/input).

Take “GATGATTGTTCTCCCAGCTGATGAATTAGACCCTTCGAGTAAACAAATTTTCCTAATCTTTCTGTTCAAGCGCCATCTAC”: the binding signal was 0.955 RPM ratio (pull-down/input).

Consider “GATGATTGTTCTCCCAGCTGATGAATTCGCCTCCTCGAGTAAACAAATTTTCCTAATCTTTCTGTTCAAGCGCCATCTAC”, for which the binding signal is 0.799 RPM ratio (pull-down/input).

Take “GATGATTGTTCTCCCAGCTGATGAATTAAAACATTCGAGTAAACAAATTTTCCTAATCTTTCTGTTCAAGCGCCATCTAC”: the binding signal is 1.4 RPM ratio (pull-down/input).

As to “GATGATTGTTCTCCCAGCTGATGAATTGCGATCTTCGAGTAAACAAATTTTCCTAATCTTTCTGTTCAAGCGCCATCTAC”, the binding signal was 1.07 RPM ratio (pull-down/input).

Consider “GATGATTGTTCTCCCAGCTGATGAATTCTGAATTTCGAGTAAACAAATTTTCCTAATCTTTCTGTTCAAGCGCCATCTAC”, for which the binding signal was 0.85 RPM ratio (pull-down/input).

As for “GATGATTGTTCTCCCAGCTGATGAATTCTAATTTTCGAGTAAACAAATTTTCCTAATCTTTCTGTTCAAGCGCCATCTAC”, the binding signal is 0.997 RPM ratio (pull-down/input).

As for “GATGATTGTTCTCCCAGCTGATGAATTACAGCCATCGAGTAAACAAATTTTCCTAATCTTTCTGTTCAAGCGCCATCTAC”, the binding signal is 1.09 RPM ratio (pull-down/input).

In the case of “GATGATTGTTCTCCCAGCTGATGAATTCAATATCTCGAGTAAACAAATTTTCCTAATCTTTCTGTTCAAGCGCCATCTAC”, the binding signal was 0.854 RPM ratio (pull-down/input).

Take “GATGATTGTTCTCCCAGCTGATGAATTCCATAGATCGAGTAAACAAATTTTCCTAATCTTTCTGTTCAAGCGCCATCTAC”: the binding signal is 0.787 RPM ratio (pull-down/input).

“GATGATTGTTCTCCCAGCTGATGAATTAGAAGCATCGAGTAAACAAATTTTCCTAATCTTTCTGTTCAAGCGCCATCTAC”: the binding signal was 1.12 RPM ratio (pull-down/input).

Regarding “GATGATTGTTCTCCCAGCTGATGAATTAATAGGATCGAGTAAACAAATTTTCCTAATCTTTCTGTTCAAGCGCCATCTAC”, the binding signal was 0.865 RPM ratio (pull-down/input).

On to “GATGATTGTTCTCCCAGCTGATGAATTAGAAACGTCGAGTAAACAAATTTTCCTAATCTTTCTGTTCAAGCGCCATCTAC”, for which the binding signal was 0.894 RPM ratio (pull-down/input).

With “GATGATTGTTCTCCCAGCTGATGAATTCCGGTGATCGAGTAAACAAATTTTCCTAATCTTTCTGTTCAAGCGCCATCTAC”, the binding signal was 0.897 RPM ratio (pull-down/input).

Regarding “GATGATTGTTCTCCCAGCTGATGAATTGTGAGTGTCGAGTAAACAAATTTTCCTAATCTTTCTGTTCAAGCGCCATCTAC”, the binding signal was 1.13 RPM ratio (pull-down/input).

With “GATGATTGTTCTCCCAGCTGATGAATTCCGCTCATCGAGTAAACAAATTTTCCTAATCTTTCTGTTCAAGCGCCATCTAC”, the binding signal is 0.776 RPM ratio (pull-down/input).

On to “GATGATTGTTCTCCCAGCTGATGAATTTGGCACTTCGAGTAAACAAATTTTCCTAATCTTTCTGTTCAAGCGCCATCTAC”, for which the binding signal is 0.874 RPM ratio (pull-down/input).

Turning to “GATGATTGTTCTCCCAGCTGATGAATTGAGTCAATCGAGTAAACAAATTTTCCTAATCTTTCTGTTCAAGCGCCATCTAC”, the binding signal was 1.01 RPM ratio (pull-down/input).

With “GATGATTGTTCTCCCAGCTGATGAATTGTCTCTTTCGAGTAAACAAATTTTCCTAATCTTTCTGTTCAAGCGCCATCTAC”, the binding signal was 1.1 RPM ratio (pull-down/input).

As to “GATGATTGTTCTCCCAGCTGATGAATTACAAGAGTCGAGTAAACAAATTTTCCTAATCTTTCTGTTCAAGCGCCATCTAC”, the binding signal was 1.13 RPM ratio (pull-down/input).

Regarding “GATGATTGTTCTCCCAGCTGATGAATTGATACGCTCGAGTAAACAAATTTTCCTAATCTTTCTGTTCAAGCGCCATCTAC”, the binding signal was 1.1 RPM ratio (pull-down/input).

As for “GATGATTGTTCTCCCAGCTGATGAATTCCGACCTTCGAGTAAACAAATTTTCCTAATCTTTCTGTTCAAGCGCCATCTAC”, the binding signal is 0.754 RPM ratio (pull-down/input).

With “GATGATTGTTCTCCCAGCTGATGAATTAGCATCCTCGAGTAAACAAATTTTCCTAATCTTTCTGTTCAAGCGCCATCTAC”, the binding signal was 1.21 RPM ratio (pull-down/input).

On to “GATGATTGTTCTCCCAGCTGATGAATTTTGTTGATCGAGTAAACAAATTTTCCTAATCTTTCTGTTCAAGCGCCATCTAC”, for which the binding signal is 2.8 RPM ratio (pull-down/input).

For “GATGATTGTTCTCCCAGCTGATGAATTTAATCAATCGAGTAAACAAATTTTCCTAATCTTTCTGTTCAAGCGCCATCTAC”, the binding signal was 1.04 RPM ratio (pull-down/input).

Turning to “GATGATTGTTCTCCCAGCTGATGAATTGTGCTTTTCGAGTAAACAAATTTTCCTAATCTTTCTGTTCAAGCGCCATCTAC”, the binding signal was 1.3 RPM ratio (pull-down/input).

As to “GATGATTGTTCTCCCAGCTGATGAATTCAACGCTTCGAGTAAACAAATTTTCCTAATCTTTCTGTTCAAGCGCCATCTAC”, the binding signal is 0.91 RPM ratio (pull-down/input).

In the case of “GATGATTGTTCTCCCAGCTGATGAATTTCCGGCCTCGAGTAAACAAATTTTCCTAATCTTTCTGTTCAAGCGCCATCTAC”, the binding signal is 0.772 RPM ratio (pull-down/input).

“GATGATTGTTCTCCCAGCTGATGAATTATCTCTGTCGAGTAAACAAATTTTCCTAATCTTTCTGTTCAAGCGCCATCTAC”: the binding signal is 0.846 RPM ratio (pull-down/input).

With “GATGATTGTTCTCCCAGCTGATGAATTGCAACGCTCGAGTAAACAAATTTTCCTAATCTTTCTGTTCAAGCGCCATCTAC”, the binding signal is 1.2 RPM ratio (pull-down/input).

Consider “GATGATTGTTCTCCCAGCTGATGAATTTAATTAGTCGAGTAAACAAATTTTCCTAATCTTTCTGTTCAAGCGCCATCTAC”, for which the binding signal is 0.96 RPM ratio (pull-down/input).

Turning to “GATGATTGTTCTCCCAGCTGATGAATTTCGGAATTCGAGTAAACAAATTTTCCTAATCTTTCTGTTCAAGCGCCATCTAC”, the binding signal was 0.898 RPM ratio (pull-down/input).
